# The supplement of paper PMC3334620
# In all, about 33,000 sequences were measured (“E-score (-0.5 to 0.5)”: median about -0.011, highest 2% from about 0.28 on). This is one part of the list.
# Molecular target: T1, Gcr1 (UniProt P07261)
# T1 sequence: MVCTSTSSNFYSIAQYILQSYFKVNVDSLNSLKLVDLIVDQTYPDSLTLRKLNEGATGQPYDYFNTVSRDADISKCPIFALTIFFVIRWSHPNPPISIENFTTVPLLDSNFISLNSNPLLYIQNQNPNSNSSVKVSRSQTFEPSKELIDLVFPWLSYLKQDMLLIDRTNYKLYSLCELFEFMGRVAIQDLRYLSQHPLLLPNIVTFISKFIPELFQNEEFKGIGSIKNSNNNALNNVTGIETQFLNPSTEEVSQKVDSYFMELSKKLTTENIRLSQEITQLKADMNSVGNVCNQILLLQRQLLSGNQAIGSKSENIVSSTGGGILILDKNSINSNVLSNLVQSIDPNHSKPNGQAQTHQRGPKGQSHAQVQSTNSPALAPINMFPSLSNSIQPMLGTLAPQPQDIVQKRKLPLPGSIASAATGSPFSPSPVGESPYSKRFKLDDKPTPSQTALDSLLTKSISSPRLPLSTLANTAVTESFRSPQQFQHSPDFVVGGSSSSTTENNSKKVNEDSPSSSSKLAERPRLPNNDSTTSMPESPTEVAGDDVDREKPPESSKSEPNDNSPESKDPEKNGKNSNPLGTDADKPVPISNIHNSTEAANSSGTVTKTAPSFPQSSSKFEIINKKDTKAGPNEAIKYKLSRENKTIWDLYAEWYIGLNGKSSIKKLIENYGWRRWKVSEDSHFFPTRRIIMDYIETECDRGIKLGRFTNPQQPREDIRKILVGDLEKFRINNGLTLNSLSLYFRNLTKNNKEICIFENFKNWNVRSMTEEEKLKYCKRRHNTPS
# Assay: PBM E-score (8-mer binding enrichment) (E-score (-0.5 to 0.5)); higher = stronger / more preferred TF binding; most listed sequences are background and not binding sites
# Details: protein concentration: 100 nM; construct: GST-full length
# Outline: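 Full-length yeast transcription factors or their DNA-binding domains, GST-tagged and expressed with PURExpress, were applied at about 100-200 nM to universal all-10-mer Agilent arrays. These arrays had been made double-stranded by primer extension on fresh or once-stripped slides. Detection used fluorescent anti-GST, normalisation used masliner, and E-scores for ungapped eight-base words pooled with reverse complements came from the Universal PBM Analysis Suite.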
row,Sequence,PBM E-score
1,ATAATGAC,-0.165
2,ACAGGACG,0.26
3,GTTTAAAC,-0.0684
4,GTAACGGA,-0.0344
5,AAGAGCTT,-0.0201
6,GTAAGGAC,-0.224
7,ATAGAAAC,0.171
8,CCGGTACC,0.0145
9,AACGTATC,-0.119
10,AGGTCTGC,-0.0299
11,AACTGGAG,0.115
12,CCTCCGTC,-0.3
13,GAAGTGTA,-0.161
14,ACGCTATC,0.036
15,AGTAGACG,0.302
16,AATACTAC,0.0602
17,TATGACCA,-0.0479
18,CGTGTAAG,0.142
19,CCCAGGAC,-0.0507
20,GCGTGCCA,-0.186
21,ATACTATC,-0.169
22,GATTCCAA,0.416
23,CTATCGGA,0.0265
24,ATCCCGGC,0.051
25,AAGCACAC,0.137

row,Sequence,PBM E-score
1,CTAATCCC,0.0895
2,CAGGCTGG,-0.174
3,CTGTGCGA,-0.147
4,CTGGAGTA,0.00472
5,AACAAAGA,0.00016
6,AAACAGCA,0.0823
7,AAGTCTGC,0.0313
8,ATTTCCGA,0.0903
9,TGTTTCAA,0.0895
10,CTAGACCC,-0.0797
11,GCAATATA,0.0306
12,AAAGCGCG,-0.0766
13,ACCCCCAA,-0.0644
14,ACGCCTAA,0.155
15,AGACTTCG,0.103
16,GCTACGGA,-0.0343
17,CAACACGC,-0.078
18,CGCCCATC,0.153
19,CGTGAGTC,-0.194
20,AGACCTTG,-0.173
21,ATGGGCTC,0.102
22,ACTCCGAT,-0.0465
23,CGATCTAG,-0.164
24,ACTAATAA,0.218
25,CGCGTACG,0.0697

row,Sequence,PBM E-score
1,AAACCTCC,-0.207
2,AGTTCTGC,-0.0323
3,ACCGGCTG,0.24
4,CAAGCTTC,0.232
5,ACGGAACA,0.169
6,CCAATAAC,0.0959
7,GTTATCAA,-0.0438
8,GCGACGTA,0.0483
9,ACCGCGAA,0.0692
10,CATACCCC,0.0232
11,CTTACTGC,-0.136
12,ATCAGCGA,-0.109
13,CTTATGGA,-0.0512
14,AACGTGAA,-0.0305
15,GGTCATAC,-0.197
16,GCCCCTCA,-0.094
17,CGACACGC,-0.0997
18,AATAGCTC,-0.176
19,ATGATGGA,0.0288
20,ATCGATCG,-0.165
21,GATCGTGA,-0.151
22,CCACGTCA,-0.0982
23,AAACGCCT,-0.198
24,CAGATACG,0.103
25,AGATATGA,0.0266

row,Sequence,PBM E-score
1,GGACATCA,-0.0546
2,AAAAAGTT,0.0512
3,AGATGTTA,-0.208
4,TGAATTCA,0.00695
5,CGTCTGCA,0.0942
6,GAAATGTA,0.175
7,CGAGTGAA,-0.202
8,CGCTCAGC,-0.0214
9,CAGAATAC,0.152
10,TGACCGCA,-0.0508
11,AAATCTCA,0.0941
12,GACTTCCA,0.319
13,CATCTCAA,0.0337
14,GTCTGAGA,-0.0892
15,ATCTAGAC,0.0936
16,CTCGAAGA,-0.136
17,TAAATGTA,-0.0458
18,GAGGGTTA,-0.17
19,AGGGTCAC,-0.215
20,CCAATCCG,0.144
21,AGCAAATC,-0.0226
22,GGAGAGGA,0.0158
23,AATGTAAC,-0.0323
24,CCCCGCAC,0.0651
25,CCATGGGC,0.0107

row,Sequence,PBM E-score
1,CATTCTCG,-0.0113
2,ACGTCATC,0.0184
3,GAGTCAAA,-0.086
4,AGCTAAGA,0.162
5,ACTGTTGC,-0.0291
6,GCCGACCC,-0.157
7,GCCGTGTA,-0.0249
8,CGCCCATA,0.0786
9,TAGTCAGA,0.0371
10,CAACACTC,-0.03
11,GGTGTGAC,-0.205
12,ATTGATAC,0.0697
13,CACATAAA,0.106
14,ACGGCACG,-0.0602
15,CGTATGTA,-0.07
16,TACTCACA,0.0331
17,AATTGCAG,0.0997
18,GAGGGTCC,-0.0308
19,AACTCATG,-0.0407
20,CTGAACTA,0.0431
21,CCTTGACC,-0.145
22,GGCGAGAA,-0.106
23,AGTCCGTG,-0.0968
24,TTGCCCAA,-0.0789
25,GTCGAGAC,-0.0717

row,Sequence,PBM E-score
1,CGAGCGAA,-0.0543
2,CGTCGTAG,-0.149
3,CCGTGGGA,0.117
4,CAGAGCCC,-0.0137
5,CCTACCTA,-0.0173
6,AAAGCCGA,-0.179
7,GGCGGTCA,-0.119
8,TAGTTAAA,0.00532
9,ACCCAGCC,-0.137
10,CATGATCC,0.0249
11,GCGCCGAA,0.108
12,AGTCAGGC,0.0988
13,GAATCATC,-0.0777
14,CATCTGAA,0.0901
15,GCTCGTAC,-0.129
16,GGCGGTTA,-0.0399
17,ACCGATTC,0.0405
18,GCAAGAGA,0.0293
19,TCGAACCA,0.0127
20,CGTCGTCA,-0.0334
21,ATCCGAAT,0.187
22,CTGTGATA,0.076
23,AGCAGGAA,-0.0368
24,CCGGAACG,-0.0389
25,AAGGATCT,0.0538

row,Sequence,PBM E-score
1,CGAAACTC,0.047
2,ATAGACTG,-0.111
3,ACGACCAG,-0.0461
4,TGTATTAA,0.187
5,CGATATTC,0.134
6,AATACATG,0.0783
7,ACCTCTAA,0.16
8,AGGCTGGG,-0.283
9,CTATCAGA,0.119
10,ACGCGCGC,-0.0242
11,AAACCCCA,-0.135
12,AGCATTAA,0.0279
13,CTGTGGTC,0.0226
14,GCACGTAA,0.00144
15,CGCTATAG,-0.0823
16,ATCCGCAG,0.0551
17,GTCTTCCA,-0.0117
18,ATAATTAC,0.0678
19,ACGATAAT,0.203
20,ACATAATG,0.202
21,GGGGCCTA,0.00152
22,CTATCAAG,-0.0254
